Laboratory results taken from PubChem BioAssay (Tox21).
Where “and” joins values, the source holds several entries; their conditions need not be identical. Equal values may be shown once. The shares of active, inactive and inconclusive entries below differ from those in the screen. For some assays here: Where the call is inconclusive, the potency comes from a doubtful curve fit. Some compounds were tested as several samples or in several runs, with calls that do not always agree. Calls of active or inactive are those of the source. Unless noted, calls come from the whole dose curve; as a rule, active = well fitted curve in the direction sought with a large enough effect in the repeat runs; inconclusive = weak or mixed curves; inactive = no such curve, though single readings can be large; an effect the other way counts as inactive or inconclusive.

Legend:
[1] = qHTS assay to identify small molecule antagonists of the glucocorticoid receptor (GR) signaling pathway - cell viability counter screen (AID 720693); conditions: GR-bla HeLa viability, CellTiter-Glo luminescence, 18 h, with 5 nM dexamethasone present; viability change, negative = cytotoxic: at 58.5 µM (top of the series); note: potency is the fitted concentration of half-maximal effect; nearly all actives have a fitted effect of over 55% in size
[2] = qHTS assay for identifying genotoxic compounds that show differential cytotoxicity against isogenic chicken DT40 cell lines with known DNA damage response pathways - Rev3 mutant cell line (AID 743014); conditions: chicken DT40 Rev3-/- viability, CellTiter-Glo, 40 h; activity, negative = cytotoxicity: at 68.4 µM (top of the series) unless noted; note: potency is the fitted concentration of half-maximal effect; nearly all actives have a fitted effect of over 55% in size
[3] = qHTS assay to identify small molecule antagonists of the thyroid receptor (TR) signaling pathway - cell viability counter screen (AID 743064); conditions: GH3.TRE-Luc viability, CellTiter-Fluor, 24 h; activity change, negative = cytotoxic: at 70.3 µM (top of the series) unless noted; note: potency is the fitted concentration of half-maximal effect; nearly all actives have a fitted effect of over 50% in size
Procedure, shortened: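 Fluorescence from CellTiter-Fluor, added after 23.5 h exposure at 37 °C, reported viability of GH3.TRE-Luc cells co-treated with compound and 1 nM T3. Measured in the same wells as the luciferase TR readout.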

[4] = tested on: thyroid hormone receptor (rat, GH3 cells); test: qHTS assay to identify small molecule agonists of the thyroid receptor (TR) signaling pathway (AID 743066; calls by dose curve; note: % is set by controls: 0 for no effect and ±100 for the full control effect); conditions: GH3.TRE-Luc cells, TR agonist luciferase, 24 h; activation: at 83.9 µM (top of the series) unless noted
[5] = qHTS assay to identify small molecule antagonists of the estrogen receptor alpha (ER-alpha) signaling pathway - cell viability counter screen (AID 743074; calls by dose curve;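 note: HEK293 cells carrying ER-alpha-UAS-bla reporter stimulated with 17beta-estradiol; potency is the fitted concentration of half-maximal effect; nearly all actives have a fitted effect of over 45% in size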)
[6] = qHTS assay to identify small molecule antagonists of the estrogen receptor alpha (ER-alpha) signaling pathway using the BG1 cell line - cell viability counter screen (AID 743081); conditions: BG1Luc4E2 viability, CellTiter-Fluor, 22 h; activity change, negative = cytotoxicity: at 70.3 µM (top of the series) unless noted;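 note: compound given together with 17beta-estradiol as the ER stimulus; % is set by controls: 0 for no effect and ±100 for the full control effect; nearly all actives have a fitted effect of over 45% in size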
[7] = qHTS assay to identify aromatase inhibitors - cell viability counter screen (AID 743084); conditions: MCF-7 aro ERE viability, CellTiter-Fluor, 24 h; activity change, negative = cytotoxicity: at 70.3 µM (top of the series) unless noted;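 note: cells stimulated with testosterone during compound exposure; potency is the fitted concentration of half-maximal effect; nearly all actives have a fitted effect of over 55% in size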
[8] = qHTS assay to identify small molecule antagonists of the peroxisome proliferator-activated receptor gamma (PPARg) signaling pathway - cell viability counter screen (AID 743194); conditions: PPARg-bla HEK293H viability, CellTiter-Glo luminescence, 17 h, co-treated with 50 nM rosiglitazone; activity change, negative = cytotoxicity: at 62.6 µM (top of the series) unless noted; note: potency is the fitted concentration of half-maximal effect; nearly all actives have a fitted effect of over 55% in size
Procedure, shortened: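 Viability was measured as CellTiter-Glo luminescence in GeneBLAzer PPARg UAS-bla HEK293H cells. These cells had been exposed 17 h at 37 C to compounds together with rosiglitazone at 50 nM final, with the beta-lactamase readout taken in the same wells.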

[9] = qHTS assay to identify small molecule antagonists of the peroxisome proliferator-activated receptor delta (PPARd) signaling pathway - cell viability counter screen (AID 743213); conditions: PPARd-bla HEK293H viability, CellTiter-Glo luminescence, 17 h; viability change, negative = cytotoxic: at 62 µM (top of the series) unless noted; note: potency is the fitted concentration of half-maximal effect; nearly all actives have a fitted effect of over 50% in size
Procedure, shortened: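 Viability counter-screen, qHTS format: PPARd-bla HEK293H, L165041 300 nM final, 17 h compound exposure at 37 C, CellTiter-Glo luminescence after 30 min RT.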

[10] = qHTS assay to identify small molecule agonists of the farnesoid-X-receptor (FXR) signaling pathway - cell viability counter screen (AID 743218); conditions: FXR-bla HEK293T viability, CellTiter-Glo luminescence, 16 h; viability change, negative = cytotoxic: at 62.6 µM (top of the series) unless noted; note: potency is the fitted concentration of half-maximal effect; nearly all actives have a fitted effect of over 45% in size
Procedure, shortened: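 Viability of FXR-bla HEK 293T cells is measured by ATP-based CellTiter-Glo luminescence following 16 h compound treatment at 37 C and a prior 2 h room-temperature beta-lactamase substrate step.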

[11] = qHTS assay to identify small molecule antagonists of the estrogen related receptor signaling pathway with the pleiotropic PPARgamma coactivator (PGC) cell viability counter screen (AID 1224822;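 note: potency is the fitted concentration of half-maximal effect; viability read after 17.5 h compound exposure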)
Procedure, shortened: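 Cytotoxicity in the PGC/ERR cell line is assessed with CellTiter-Fluor, read as fluorescence intensity 30 min after reagent addition, following 17.5 h compound treatment at 37 C.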

[12] = qHTS assay to identify small molecule antagonists of the estrogen related receptor (ERR) signaling pathway from Tox21 library - cell viability counter screen (AID 1224834); note: potency is the fitted concentration of half-maximal effect; nearly all actives have a fitted effect of over 30% in size
Procedure, shortened: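 Compounds in DMSO were pinned onto ERR cells that had been incubated for 6 h, and the plates were held at 37 C for 17.5 h. CellTiter-Fluor reagent was then added and fluorescence was measured after 30 min.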

[13] = qHTS assay to identify small molecule antagonists of the estrogen related receptor signaling pathway with the pleiotropic PPARgamma coactivator (PGC) from Tox21 10K library - cell viability counter screen (AID 1224840; active = well fitted cell-killing curve with a large enough effect in the repeat runs, not every such curve was filed as active; inconclusive = weak or mixed curves, or effect the other way; inactive = no such curve, though single readings can be large or run the other way; note: potency is the fitted concentration of half-maximal effect; nearly all actives have a fitted effect of over 40% in size)
Procedure, shortened: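 Cell viability is measured by CellTiter-Fluor fluorescence in PGC/ERR cells that receive compounds after a 6-hour attachment period and are then incubated 17.5 hours at 37 C.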

[14] = qHTS assay to identify small molecule agonists of the hypoxia (HIF-1) signaling pathway - cell viability counter screen (AID 1224844; calls by dose curve; note: % is set by controls: 0 for no effect and ±100 for the full control effect; nearly all actives have a fitted effect of over 50% in size)
Procedure, shortened: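 Viability counter screen: HRE-bla ME-180 cells plated 5 hrs before compound addition, treated 17 hrs at 37C and 5% CO2, then CellTiter-Glo added after the FRET reporter read; luminescence after 30 min.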

[15] = A CellTox Green Cytotoxicity Assay to monitor cytotoxicity in HEK293 cells - 40 hour (AID 1224871); note: potency is the fitted concentration of half-maximal effect; nearly all actives have a fitted effect of over 45% in size
Procedure, shortened: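 Dead-cell fluorescence measured kinetically: asymmetric cyanine dye, HEK293, 600 cells/well, 5 h settle, 23 nL cpd/DMSO, 37 C, reads 0–40 h every 8 h.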

[16] = A CellTox Green Cytotoxicity Assay to monitor cytotoxicity in HepG2 cells - 16 hour (AID 1224876)
Procedure, shortened: (§1)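 First, HepG2 cells (600/well) mixed with reagent were plated; second, after 5 h at 37 C they received compounds via pintool; third, fluorescence was measured at 0 h through 40 h at 8 h intervals.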

[17] = A CellTox Green Cytotoxicity Assay to monitor cytotoxicity in HepG2 cells - 24 hour (AID 1224878)
Procedure, shortened: as §1

[18] = A CellTox Green Cytotoxicity Assay to monitor cytotoxicity in HepG2 cells - 40 hour (AID 1224879); note: potency is the fitted concentration of half-maximal effect; nearly all actives have a fitted effect of over 40% in size
Procedure, shortened: as §1

[19] = qHTS assay to identify small molecule agonists of the estrogen receptor beta (ER-beta) signaling pathway - cell viability counter screen (AID 1259380); note: potency is the fitted concentration of half-maximal effect; nearly all actives have a fitted effect of over 30% in size
Procedure, shortened: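 Steps: plate ER-beta-UAS-bla HEK293T cells, rest 6 hr; add compounds in DMSO; incubate 16 hr at 37C, 5% CO2; add FRET substrate 2 hr; add CellTiter-Glo, wait 30 min at room temperature; read luminescence.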

[20] = qHTS assay to identify small molecule agonists of the progesterone receptor (PR) signaling pathway - cell viability counter screen (AID 1346799; calls by dose curve)
Procedure, shortened: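 Luminescence from CellTiter-Glo, added after the beta-lactamase FRET read in the same wells, gave cytotoxicity in PR-UAS-bla HEK293T cells treated with compounds for 16 hr at 37C.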
Tags give direction and shape of the fitted curve.

COc1ccc(CCN(C)CCCC(C#N)(c2ccc(OC)c(OC)c2)C(C)C)cc1OC (stereo not given)
inactive: Potency [6] | Potency [14]
inconclusive: Potency [1] 26.8 µM [cytotoxic, single point] | activation [4] -8.65% [phenotype inactive] | Potency [5] 26.8 µM [cytotoxic, single point] | Potency [7] 16.8 µM [cytotoxic, partial curve] | Potency [8] 54.8 µM [cytotoxic, single point] | Potency [9] 43.6 µM [cytotoxic, partial curve, poor fit] | Potency [10] 43.6 µM [cytotoxic, partial curve] | Potency [11] 33.5 µM [cytotoxic, partial curve, poor fit] | Potency [12] 29.8 µM [cytotoxic, partial curve] | Potency [13] 61 µM [cytotoxic, partial curve] | Potency [15] 54.8 µM [activator, single point] | Potency [16] 26.8 µM [activator, single point] | Potency [17] 54.8 µM [activator, single point] and 26.8 µM [activator, single point] | Potency [18] 26.8 µM [activator, single point] | Potency [19] 68.5 µM [cytotoxic, single point] | Potency [20] 33.5 µM [cytotoxic, single point]
active: Potency [2] 23.7 µM and 27.3 µM | Potency [3] 23.7 µM and 21.6 µM
